# Measurements: PubChem BioAssay AID1345083 (National Center for Advancing Translational Sciences (NCATS), 2018)
# In all, about 94,000 compounds went through this assay and about 6,200 (6.6%) were called active. This list was built around the results that the source calls inconclusive (neither active nor inactive); the mix of calls is not that of the screen. Calls follow the shape of the dose curve; as a rule, active = well fitted inhibition curve with a large enough effect; inconclusive = small, poorly fitted or top-dose-only effect; inactive = flat fitted curve, though single readings scatter. Potencies of inconclusive entries are doubtful fits and often do not repeat.
# Assay: Cytotoxic Profiling in HEK 293 Cell Line of Diverse Libraries Using Quantitative High-Throughput Screening; also: nearly all actives have a fitted effect of over 60% in size
# Conditions: HEK 293 viability, ATP luminescence (CellTiter-Glo), 48-72 h; activity change, negative = cytotoxicity: at 115 µM (top of the series) unless noted; series mostly up to 115 µM
# Summary of the method: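 ATP-coupled CellTiter-Glo luminescence served as viability read-out, recorded 10 min after reagent addition at room temperature. HEK 293 cells, 250 cells/well, had been incubated with pintool-transferred compound for 48 or 72 hr at 37 degree Celsius.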
# % is scaled to controls: 0 for no effect and ±100 for the full control effect; potency is read from the fitted curve at half-maximal effect; tags tell the direction and shape of the fitted curve.
Compound,Potency,"activity change, negative = cytotoxicity",outcome
CCc1cc(=O)n(CC(=O)Nc2ccc(OC)c(OC)c2)c(N2CCOCC2)n1,"inconclusive: 31.6 µM [inhibitor, partial curve, poor fit]",–,–
CCc1noc(-c2ccn3c(CNC(=O)Cc4ccccc4Cl)nnc3c2)n1,–,inactive: -14.4%,–
CNC(=O)CCn1ncc2cc(OCc3ccccc3-c3cccnc3)ccc21,"inconclusive: 89.1 µM [inhibitor, partial curve, poor fit]",–,–
Cc1ccc(N2CC(c3noc(C4CCN(C(=O)c5ccccc5)CC4)n3)CC2=O)cc1 (stereo not given),–,inactive: -2.38%,–
O=C(c1ccoc1)N1CCC(n2cc(-c3nc(-c4ccccc4)no3)nn2)CC1,"inconclusive: 56.2 µM [inhibitor, partial curve, poor fit]",–,–
COc1ccc2[nH]c3c(c2c1)CCNC31CCN(C(=O)C2CC=CC2)CC1,active: 44.7 µM,–,–
c1nc(N2CCOCC2)c2c3c(sc2n1)CN(CC1CCCCC1)CC3,"inconclusive: 89.1 µM [inhibitor, single point]",–,–
COc1ccc(C(=O)N2C[C@@H]3OCC(=O)N(Cc4ccccc4)[C@@H]3C2)cc1,"inconclusive: 126 µM [inhibitor, single point]",–,–
Cc1nnc([C@@H]2CC(F)(F)CN2C(=O)c2n[nH]c3ccccc23)o1,–,–,inactive
Cc1ccccc1CN1C[C@H](O)C[C@H]1c1nc(-c2ccncc2)no1,"inconclusive: 70.8 µM [inhibitor, full curve, poor fit]",–,–
CN1c2cc(C(=O)Nc3cccc(C#N)c3)ccc2C(=O)N2CCCCCC21 (stereo not given),"inconclusive: 56.2 µM [inhibitor, partial curve, poor fit]",–,–
Cn1nccc1-c1ccc2ncn(-c3ccc(F)cc3F)c(=O)c2n1,active: 63.1 µM,–,–
O=C(NCc1ccsc1)C1CN(c2cccc(Cl)c2)C(=O)N1 (stereo not given),"inconclusive: 12.6 µM [inhibitor, full curve, poor fit]",–,–
Cc1nncn1C1CN(S(=O)(=O)c2ccccc2F)C1,–,–,inactive
COc1ccc(CN2CCC3(CC2)CC(c2cccc(C(F)(F)F)c2)=NO3)cc1,active: 50.1 µM,–,–
Cc1nc2c(c(-c3ccc(O)cc3)n1)CCN(C(=O)c1ccccc1)CC2,–,inactive: -16.3%,–
Cc1cccc(NC(=O)N2CCc3nc(-c4ccccc4)[nH]c3C2)c1,"inconclusive: 89.1 µM [inhibitor, partial curve, poor fit]",–,–
CCn1ccc(C(=O)N2CCCC(c3noc(COc4ccccc4)n3)C2)n1 (stereo not given),"inconclusive: 39.8 µM [inhibitor, partial curve]",–,–
Cc1ccc(-c2cc3c(=O)n(CCNC(=O)c4cccc(Cl)c4)ccn3n2)c(C)c1,"inconclusive: 56.2 µM [inhibitor, partial curve, poor fit]",–,–
CC(C)c1ccc(C(=O)N2CCC(C3CCNC3)CC2)cc1 (stereo not given),–,inactive: -26.4%,–
COc1ccc2nc3n(c2c1)[C@@H](CNCc1ccc(C(F)(F)F)cc1)COC3,"inconclusive: 50.1 µM [inhibitor, partial curve, poor fit]",–,–
Cc1ccc(CN2CCCCCCNC(=O)CC2)s1,"inconclusive: 28.2 µM [inhibitor, full curve]",–,–
COc1cccc(-c2noc(CCCc3nc(-c4cccnn4)no3)n2)c1,–,inactive: -3.16%,–
CCN1c2cc(C(=O)NC3CCCC3)ccc2C(=O)N2CCCCC21 (stereo not given),"inconclusive: 79.4 µM [inhibitor, single point]",–,–

Compound,Potency,"activity change, negative = cytotoxicity",outcome
CC(=O)N1CCN(c2ccc3nnc(-c4ccccc4)n3n2)CC1,inactive,–,–
Cc1ccc(-c2cc(N3CCC(CNC(=O)c4cccc(N(C)C)c4)CC3)n[nH]2)cc1,"inconclusive: 44.7 µM [inhibitor, partial curve, poor fit]",–,–
Cc1ccc(CC(=O)NCc2nnc3cc(-c4nc(C5CC5)no4)ccn23)cc1,–,inactive: -7.76%,–
COc1ccc(Nc2cc3c(cn2)CN(Cc2ccncc2)CCN3)cn1,"inconclusive: 100 µM [inhibitor, partial curve]",–,–
O=C(NCCOc1ccccc1)c1ccc2c(c1)OCCN(c1ccccc1)C2,"inconclusive: 39.8 µM [inhibitor, full curve, poor fit]",–,–
CN(C)C[C@@H]1CN(Cc2ccccn2)C[C@H]1NC(=O)c1cc(F)ccc1Cl,"inconclusive: 89.1 µM [inhibitor, single point]",–,–
COc1ccc(C2CCC(=O)N2Cc2ccc3c(c2)OCO3)cc1 (stereo not given),"inconclusive: 31.6 µM [inhibitor, full curve]",–,–
O=C(c1ccncc1)N1CCCN(CCn2nc3n(c2=O)CCCC3)CC1,–,inactive: -6.93%,–
Cc1nc(NC(=O)C2CC(=O)N(c3n[nH]c4cccc(F)c34)C2)sc1C (stereo not given),"inconclusive: 89.1 µM [inhibitor, single point]",–,–
COc1ccc(-c2n[nH]c3c2CC(=O)N(CC2CC2)C3)cc1OC,"inconclusive: 126 µM [inhibitor, single point]",–,–
Cc1ccc(CC(=O)N2CCCN(c3cc(-c4ccccc4)[nH]n3)CC2)cc1,active: 50.1 µM,–,–
COc1ccc(-c2ccc(C(=O)N3CCOCC3)c(Cl)c2)nn1,"inconclusive: 79.4 µM [inhibitor, partial curve, poor fit]",–,–
CCN1C(=O)C2CC3(CCN(C4CCN(C)CC4)CC3)CN2C1=O (stereo not given),–,inactive: -16.2%,–
CCCCOc1ccc(C(=O)N2CCC[C@H]2c2nc(-c3ccccc3)no2)cc1,"inconclusive: 56.2 µM [inhibitor, partial curve, poor fit]",–,–
O=C(NCCn1ccn2nc(-c3ccc(F)cc3)cc2c1=O)c1cccc(Cl)c1,–,inactive: -43.1%,–
Cc1nn2c(c1-c1ccccc1OCc1ccccc1)N(C(=O)CCc1cccnc1)CCC2,"inconclusive: 50.1 µM [inhibitor, partial curve, poor fit]",–,–
O=C(Cc1cccc(Cl)c1)N1CCN(c2nccc(Nc3ccccc3F)n2)CC1,active: 28.2 µM,–,–
NC(=O)c1cccc(CN2CCCC3(Cc4ccccc4N(C(=O)C4CCCC4)C3)C2)c1 (stereo not given),"inconclusive: 79.4 µM [inhibitor, partial curve, poor fit]",–,–
COc1ccc(-c2nc(C)nc3c2CN([S+](=O)([O-])c2ccc(C)cc2)CC3)cc1,–,inactive: -26.2%,–
Fc1ccc(-c2cc(NC3CCCC3)nc3[nH]ccc23)nc1,"inconclusive: 79.4 µM [inhibitor, partial curve]",–,–
CCn1c(=O)c2ccnn2c2ccc(C(=O)NCc3ccccc3)cc21,"inconclusive: 79.4 µM [inhibitor, partial curve]",–,–
COc1ccc(N2CC(C(=O)N3CCC(C(=O)NC4CC4)C3)NC2=O)cc1 (stereo not given),inactive,–,–
O=C(OCc1ccccc1)N1CCC2(CC1)C(=O)NN=C2c1ccncc1,–,inactive: -21%,–
CCN1C(=O)C2CC3(CCN(C(=O)c4ccc(Cc5c(C)noc5C)o4)CC3)CN2C1=O (stereo not given),–,inactive: -3.65%,–

Compound,Potency,"activity change, negative = cytotoxicity",outcome
O=[S+]1([O-])NCC2(CCN(CC3CCOCC3)CC2)Oc2ncccc21,–,–,inactive
CC(=O)Nc1ccc(S(=O)(=O)N[C@H]2CO[C@H]3[C@@H]2OC[C@@H]3n2nnnc2Oc2ccc3c(c2)OCO3)cc1,–,inactive: -11.5%,–
CCOc1ccc(NC(=O)c2ccc(-c3nnc4ccc(NC(=O)C5CC5)cn34)cc2)cc1,"inconclusive: 17.8 µM [inhibitor, partial curve, poor fit]",–,–
C[S+](=O)([O-])N1Cc2ccccc2OC2(CCN(C(=O)c3ccc(N)nc3)CC2)C1,–,inactive: -12.9%,–
Cn1ncc2c(C(=O)N3CCCC3)cc(-c3cccc(F)c3)nc21,"inconclusive: 50.1 µM [inhibitor, partial curve, poor fit]",–,–
Cc1noc(C)c1-c1cc2cc(CN(C)C)oc2c(NCC(C)C)n1,active: 70.8 µM,–,–
COCCN1Cc2ccc(Nc3ccc(OC)cc3)nc2C(C)(C(=O)NCC2CC2)C1 (stereo not given),"inconclusive: 89.1 µM [inhibitor, partial curve, poor fit]",–,–
O=C(O)c1ccc(CN2CC(CNC(=O)c3ccccc3)C3(C2)CN(c2ccccc2)C3)cc1 (stereo not given),–,inactive: 4.92%,–
CN1C(=O)CS(=O)(=O)C12CCN(C(=O)c1cc(F)ccc1F)CC2,–,inactive: -0.49%,–
Cc1cccc(OCCc2noc(C3CN(C(=O)CCC4CCCC4)C3)n2)c1,"inconclusive: 79.4 µM [inhibitor, partial curve, poor fit]",–,–
O=C(C1Cn2cccc2C(=O)N1Cc1cccnc1)N1CCN(c2ncccn2)CC1 (stereo not given),–,–,inactive
COCCNc1ncc(C(=O)O)c(-c2cc(F)cc(F)c2)n1,–,inactive: -9.99%,–
O=C1NCc2ccccc2CC12CCCN2Cc1ccc(Cl)cc1 (stereo not given),"inconclusive: 56.2 µM [inhibitor, partial curve, poor fit]",–,–
CN1C(=O)c2cccn2CC1CNC(=O)c1ccc2ccccc2n1 (stereo not given),"inconclusive: 35.5 µM [inhibitor, partial curve, poor fit]",–,–
Cc1ncc(S(C)(=O)=O)c(NCCn2nc(C)nc2C)n1,–,–,inactive
COc1ccc(CN2CCOc3nc(-c4cccc(NC(C)=O)c4)ncc3C2=O)cc1,active: 100 µM,–,–
COCCNC(=O)C1COC2(CCN(C(=O)c3ccc(F)cc3)CC2)N1C(=O)c1cccc(C)c1 (stereo not given),–,inactive: -4.37%,–
CC1(C)[C@H](Cc2cc(CC3CCCCC3)on2)C[C@@H]1NC(=O)C1CCCC1,"inconclusive: 39.8 µM [inhibitor, partial curve, poor fit]",–,–
COc1ccccc1C(=O)N1CC(=O)N(CCCc2ccccc2)CC(O)C1 (stereo not given),"inconclusive: 50.1 µM [inhibitor, partial curve, poor fit]",–,–
O=C1NC(=NC2CCCCC2)C2(CCN(Cc3ccccc3)C2)N1c1cccnc1 (stereo not given),–,inactive: -19.2%,–
O=C(C1CCc2nnc(-c3ccc(Cl)cc3Cl)n21)N1CCCC1 (stereo not given),–,inactive: 2.99%,–
COC(C)c1ccc(-c2cc(C(=O)O)cc(S(=O)(=O)NC(C)C)c2)cc1 (stereo not given),–,inactive: -9.03%,–
